These results are taken from publication PMC4336329 (PLoS ONE, 2015).

The campaign covered roughly 310,000 compounds. About 14,000 (4.5%) showed an effect of 50% or more. The effect is printed as a negative number. Some of the results follow.
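Further: peak tail current of the secondary pulse compared with the same well before compound.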

Chain of human ether-à-go-go-related gene (hERG) potassium channel (Q12809 whole entry, looked up): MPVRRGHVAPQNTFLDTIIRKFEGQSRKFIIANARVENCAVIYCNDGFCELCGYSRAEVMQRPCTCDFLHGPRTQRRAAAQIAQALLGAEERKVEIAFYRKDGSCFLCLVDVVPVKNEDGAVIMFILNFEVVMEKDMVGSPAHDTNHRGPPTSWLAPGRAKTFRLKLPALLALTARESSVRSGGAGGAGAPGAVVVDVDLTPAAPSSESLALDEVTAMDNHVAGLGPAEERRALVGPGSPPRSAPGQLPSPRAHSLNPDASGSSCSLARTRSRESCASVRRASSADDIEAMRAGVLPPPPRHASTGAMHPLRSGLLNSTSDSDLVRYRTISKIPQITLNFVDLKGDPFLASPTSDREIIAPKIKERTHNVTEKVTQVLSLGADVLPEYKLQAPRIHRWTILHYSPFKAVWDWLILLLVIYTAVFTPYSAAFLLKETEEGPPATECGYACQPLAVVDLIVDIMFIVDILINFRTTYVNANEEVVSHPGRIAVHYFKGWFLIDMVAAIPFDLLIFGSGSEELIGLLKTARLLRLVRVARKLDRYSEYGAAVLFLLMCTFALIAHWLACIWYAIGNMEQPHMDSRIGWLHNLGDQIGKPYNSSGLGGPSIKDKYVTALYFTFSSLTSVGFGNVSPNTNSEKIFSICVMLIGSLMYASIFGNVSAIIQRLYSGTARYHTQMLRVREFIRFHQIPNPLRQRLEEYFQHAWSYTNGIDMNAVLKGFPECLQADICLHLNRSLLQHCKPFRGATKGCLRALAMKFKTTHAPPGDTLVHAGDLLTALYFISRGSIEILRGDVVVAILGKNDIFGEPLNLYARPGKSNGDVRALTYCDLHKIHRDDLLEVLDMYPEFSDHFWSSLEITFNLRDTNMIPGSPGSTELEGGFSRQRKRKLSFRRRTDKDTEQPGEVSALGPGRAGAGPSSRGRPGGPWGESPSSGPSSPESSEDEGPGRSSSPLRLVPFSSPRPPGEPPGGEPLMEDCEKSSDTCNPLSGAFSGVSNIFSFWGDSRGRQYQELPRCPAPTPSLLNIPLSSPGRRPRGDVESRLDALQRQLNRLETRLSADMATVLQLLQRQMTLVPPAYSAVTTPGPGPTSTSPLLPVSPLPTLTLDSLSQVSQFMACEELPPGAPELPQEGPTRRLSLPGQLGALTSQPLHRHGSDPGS

This test has as its target human ether-à-go-go-related gene (hERG) potassium channel (human, UniProt Q12809). As to the kind of experiment: primary screen, population patch clamp on CHO cells stably expressing hERG.
As to `CCOC(=O)C1(CCc2ccccc2)CCN(C(=O)C(C)n2cncn2)CC1` (centres unmarked), the “hERG current change (%, negative = inhibition) at 10uM” value is given as -14.3%. For the compound `Cc1cc(C)n(CCNC(=O)c2cc(COc3c(F)cccc3F)on2)n1`, the “hERG current change (%, negative = inhibition) at 10uM” value worked out at 8.35%. `Cc1ccc(C(=O)OCc2cn(-c3ccccc3)nn2)cc1`: the “hERG current change (%, negative = inhibition) at 10uM” value is given as -7.92%. For `Cc1cccc(Cn2c(N(C)Cc3ccccc3)nc3c2c(=O)[nH]c(=O)n3C)c1`, the “hERG current change (%, negative = inhibition) at 10uM” value is on record as -9.99%.

For the compound `CC1CCCCC12NC(=O)N(CC(=O)N1CCN(S(=O)(=O)/C=C/c3ccccc3)CC1)C2=O` (centres unmarked), the “hERG current change (%, negative = inhibition) at 10uM” value was -8.17%. To `COC(=O)C(C)Oc1cc(C)ccc1COc1ccc(-n2nc(C)n(C(F)F)c2=O)cc1` (centres unmarked) belongs -8.93%; to `COc1ccc(NC(=O)CSCC(=O)Nc2cccc3ncccc23)cc1`, 16.4%; to `CCOC(=O)Cn1nc(-c2ccc(F)cc2)cc(Cc2ccccc2)c1=O`, -12.2%. As for `COc1cc2c(cc1OC)CN(C(=O)CNS(=O)(=O)c1ccc(C)c(C)c1)CC2`, the “hERG current change (%, negative = inhibition) at 10uM” value is 6.84%.

`COc1ccc(Cc2nc3ccc(C(=O)N(C)Cc4nccs4)cc3o2)cc1OC`: the “hERG current change (%, negative = inhibition) at 10uM” value worked out at 15.3%. For the compound `O=C(Cn1cc2c(n1)CCCC2)N1CCCC1`, the “hERG current change (%, negative = inhibition) at 10uM” value is on record as 5.98%. As for `CCCCCC(=O)Nc1ccc(C(=O)COC(=O)c2ccccn2)cc1`, the “hERG current change (%, negative = inhibition) at 10uM” value is listed as 10.5%. `Cc1ccc(S(=O)(=O)N2CCN(C(=O)CN3CCOCC3)C2c2ccccc2)cc1` (centres unmarked): the “hERG current change (%, negative = inhibition) at 10uM” value came out at 4.55%. Turning to `CCN(Cc1ccccc1)C(=O)c1ccc(SC)cc1OC`, the “hERG current change (%, negative = inhibition) at 10uM” value worked out at 4.25%. As for `Cc1cc(F)ccc1S(=O)(=O)N1CCCOC1CNC(=O)C(=O)NC1CCCC1` (centres unmarked), the “hERG current change (%, negative = inhibition) at 10uM” value was -7.66%. For `C[C@@H](NC(=O)c1nc[nH]c1C(=O)NCc1ccccc1)c1ccccc1`, the “hERG current change (%, negative = inhibition) at 10uM” value was determined as 9.81%. As to `CC(=O)c1ccc(N2CCN(C(=O)c3cccc(Oc4ccccc4)c3)CC2)cc1`, the “hERG current change (%, negative = inhibition) at 10uM” value is listed as -42.1%. For the compound `O=C(CCN1CCCCC1)NCC(=O)Nc1ccc(Br)cc1C(=O)c1ccccc1`, the “hERG current change (%, negative = inhibition) at 10uM” value was -77.6%. The result for `O=C(c1cc(-c2ccc(Cl)cc2Cl)on1)N1CCCC1` reads -0.203%; that for `NC(=O)c1ccc(C(=O)N/N=C/c2cccc(Oc3ccccc3)c2)cc1`, 1.42%; that for `CNC(=S)NNC(=O)c1ccccc1F`, 11.4%.

Regarding `CC(C)c1ccc(/C=C(\NC(=O)c2ccccc2)C(=O)NCCCN2CCOCC2)cc1`, the “hERG current change (%, negative = inhibition) at 10uM” value is listed as -71.4%. Turning to `CC(C)[C@H](NC(=O)N1C[C@H]2C[C@@H](C1)c1cccc(=O)n1C2)C(=O)Nc1ccccc1F`, the “hERG current change (%, negative = inhibition) at 10uM” value turned out to be 13.5%.
